Experimental findings from paper PMC9911399, “Two distinct binding modes provide the RNA-binding protein RbFox with extraordinary sequence specificity” are described below.

Substitutions are numbered along the chain they refer to; changes in the protein carry UniProt numbers. The list shows a part of the results.

The chains are these.
B1: GCGUGGU (DNA:RNA)
RNA: GGGAGACCGGAAUUCAGAUUGUCCGCGUGGUUUAAAUCCCGUCGUAGCCACCA
DNA 1: CAATCTGAATTCCGGTCTCCC
DNA 2: TGGTGGCTACGACGGGATT
B2: UACCAAC (DNA:RNA)
RNA: GGGAGACCGGAAUUCAGAUUGUCCUACCAACUUAAAUCCCGUCGUAGCCACCA
DNA 1: CAATCTGAATTCCGGTCTCCC
DNA 2: TGGTGGCTACGACGGGATT
B3: CUUUCUC (DNA:RNA)
RNA: B1 RNA with G25C, C26U, G27U, G29C, G30U, U31C
DNA 1: CAATCTGAATTCCGGTCTCCC
DNA 2: TGGTGGCTACGACGGGATT
B4: GAUCUUA (DNA:RNA)
RNA: B2 RNA with U25G, C27U, A29U, A30U, C31A
DNA 1: CAATCTGAATTCCGGTCTCCC
DNA 2: TGGTGGCTACGACGGGATT
B5: UAACCUC (DNA:RNA)
RNA: B2 RNA with C27A, A29C, A30U
DNA 1: CAATCTGAATTCCGGTCTCCC
DNA 2: TGGTGGCTACGACGGGATT
B6: AAACUAU (DNA:RNA)
RNA: B2 RNA with U25A, C27A, A29U, C31U
DNA 1: CAATCTGAATTCCGGTCTCCC
DNA 2: TGGTGGCTACGACGGGATT
B7: UAGCGUA (DNA:RNA)
RNA: B2 RNA with C27G, A29G, A30U, C31A
DNA 1: CAATCTGAATTCCGGTCTCCC
DNA 2: TGGTGGCTACGACGGGATT
B8: CACCGAA (DNA:RNA)
RNA: B2 RNA with U25C, A29G, C31A
DNA 1: CAATCTGAATTCCGGTCTCCC
DNA 2: TGGTGGCTACGACGGGATT
B9: CAGUGUG (DNA:RNA)
RNA: B1 RNA with G25C, C26A, G30U, U31G
DNA 1: CAATCTGAATTCCGGTCTCCC
DNA 2: TGGTGGCTACGACGGGATT

The assay deals with T1, RBFOX1 RRM (Homo sapiens, UniProt Q9NWB1 109-208).
T1 sequence: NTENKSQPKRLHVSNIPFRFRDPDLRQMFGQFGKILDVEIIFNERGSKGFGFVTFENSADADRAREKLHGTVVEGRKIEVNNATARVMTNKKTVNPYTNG
Description: EMSA; HiTS-Eq, 1 nM pool, 10 min; buffer printed only for the single-RNA assays: 10 mM Tris pH 7.5, 150 mM NaCl, 3.4 mM EDTA, 0.001% NP-40, 30 C. The settings on record: tags: His6 N-terminal (pET28a); label: 5' 32P. In outline:
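These values rest on relative association constants, computed from read-count changes of each RNA species versus the control reaction and normalised to the cognate motif. Reads came from free RNA recovered by 8% native PAGE after purified RbFox RRM (wild type or mutant) at increasing concentrations was equilibrated for 10 min in 50 µL with 1 nM of a 5′-radiolabelled pool with 7 randomized nucleotides and DNA-annealed flanks.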
On the technique in general: In EMSA bound probe runs differently from free probe, usually more slowly.
B1: the binding signal is 0.0238 KA relative to UGCAUGU.

On to B2, for which the binding signal is 0.0015 KA relative to UGCAUGU.

As to B3, the binding signal was 0.0114 KA relative to UGCAUGU.

For the molecule B4, the binding signal was 0.00791 KA relative to UGCAUGU.

B5: the binding signal is 0.00423 KA relative to UGCAUGU.

With B6, the binding signal is 0.00187 KA relative to UGCAUGU.

For the molecule B7, the binding signal is 0.0113 KA relative to UGCAUGU.

Take B8: the binding signal was 0.00169 KA relative to UGCAUGU.

Take B9: the binding signal is 0.0134 KA relative to UGCAUGU.
